# Assay results: the BET-seq Pho4 binding data (Le et al. 2018)
# The list shows a part of the results. These are noisy estimates, calculated here from bound and input reads.
# Biological target: T1, Pho4 (S. cerevisiae) (UniProt P07270)
# T1 sequence: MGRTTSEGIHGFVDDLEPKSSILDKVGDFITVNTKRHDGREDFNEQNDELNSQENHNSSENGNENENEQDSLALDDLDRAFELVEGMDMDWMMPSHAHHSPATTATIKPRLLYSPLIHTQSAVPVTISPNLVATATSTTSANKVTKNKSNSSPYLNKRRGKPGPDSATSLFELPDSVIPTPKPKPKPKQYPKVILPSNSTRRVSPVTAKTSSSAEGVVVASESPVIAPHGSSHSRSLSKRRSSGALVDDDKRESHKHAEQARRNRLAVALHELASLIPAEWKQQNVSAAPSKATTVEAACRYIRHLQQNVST
# Test: relative binding free energy (BET-seq); higher = weaker binding
# Conditions: reference: library average
row,Sequence,relative binding free energy [kcal/mol]
1,GGTATCACGTGCAATT,0.2
2,AGGAGCACGTGATTTT,0.07
3,TGATCCACGTGGGCTG,-0.03
4,TCGTTCACGTGTGTAT,0.3
5,TAGAGCACGTGGGGGA,-0.27
6,AACGTCACGTGGTTGA,0.07
7,TGCCACACGTGGGGGG,-0.09
8,AAGGTCACGTGTCGGG,0.08
9,TGTTACACGTGTGAGT,0.31
10,GGAAGCACGTGAGAAT,0.39
11,CTGTTCACGTGGGTCA,0.03
12,GTATACACGTGGGTTA,-0.08
13,GTCTTCACGTGTGAGT,0.24
14,TCGTACACGTGGGGCT,0
15,GTGTTCACGTGAGTCC,0.47
16,CTTACCACGTGTGTGG,0.05
17,TAATTCACGTGGTTGG,0.32
18,TGCGACACGTGAGTTT,0.35
19,TAGTTCACGTGGTGAG,0.28
20,ATGGACACGTGTGTGG,0
21,TACGTCACGTGTAGGG,0.08
22,GTAGGCACGTGTAGGA,0.05
23,GGTTGCACGTGGTGCC,-0.09

row,Sequence,relative binding free energy [kcal/mol]
1,TTAGTCACGTGTGGCT,0.08
2,GTAAGCACGTGCTTTG,-0.13
3,TTGGCCACGTGAATTT,0.27
4,TCGAGCACGTGCGTGG,-0.09
5,GGGTGCACGTGGTATC,-0.07
6,GTTTTCACGTGTAAGA,0.28
7,TGAGACACGTGGGAAA,0.04
8,TCTTTCACGTGGGAGG,0.21
9,GGTGGCACGTGATGGG,0.13
10,GTTCGCACGTGTTTTA,0.09
11,TGTGGCACGTGCATGG,-0.26
12,GACATCACGTGGTTGT,0.23
13,GGGCGCACGTGAGGTC,0.06
14,TGTAGCACGTGGGGTC,-0.25
15,TGCAACACGTGTTTAG,0.05
16,TGCTACACGTGGGGTG,-0.14
17,ACAATCACGTGTGGTT,0.21
18,AATTTCACGTGGAGAT,0.23
19,AAGATCACGTGTATGT,0.17
20,TAGGTCACGTGTTTGT,0.1
21,GTGGACACGTGGACTG,0.01
22,TGCGACACGTGTGGAT,0.02
23,AAGTACACGTGGTGCT,0.09

row,Sequence,relative binding free energy [kcal/mol]
1,GGTGACACGTGAAGGA,0.22
2,CGTTTCACGTGGCGTA,0.08
3,TAGCGCACGTGGGGTT,-0.28
4,TTTTACACGTGAGCGC,0.41
5,TTGCTCACGTGCGTTA,0.21
6,CGGGGCACGTGCGGTT,-0.12
7,ATACTCACGTGATGGT,0.27
8,GCGTGCACGTGCGGAG,-0.08
9,TGAGACACGTGGGTGA,-0.08
10,TGATACACGTGGGTAG,-0.19
11,GAGCTCACGTGGGAGG,0.2
12,ATTTACACGTGTTGTC,0.27
13,AGGAGCACGTGGAGGT,-0.04
14,TTGGCCACGTGGGTTC,-0.11
15,GTTATCACGTGTTGTA,0.14
16,TCGGTCACGTGGGCGT,0.03
17,GTTGGCACGTGCATGG,-0.15
18,TAAGGCACGTGAAGGC,0.26
19,AGTGGCACGTGATGAT,0.12
20,CGGTGCACGTGGCAGG,-0.19
21,TTAAGCACGTGAAGCG,0.04
22,TATTTCACGTGAGTTG,0.43
23,TTTAGCACGTGGGATT,-0.18

row,Sequence,relative binding free energy [kcal/mol]
1,AACGACACGTGTGGGG,0.1
2,AGTTGCACGTGGTCTC,-0.09
3,AGCGGCACGTGATGTG,0.11
4,GAGCTCACGTGTGAGG,0.32
5,GGTGTCACGTGCGGCT,0.06
6,ACGTGCACGTGAGTAG,-0.02
7,GGGTTCACGTGTGGCT,0.42
8,AGTTTCACGTGGGTGT,0.13
9,AGGTTCACGTGTGAAA,0.28
10,GAAAGCACGTGGATTT,0.07
11,GAATTCACGTGAAGTG,0.21
12,CTAGTCACGTGGGAAG,-0.05
13,AGGGACACGTGCAAGG,-0.12
14,AGGGGCACGTGGCAGT,-0.13
15,GATTTCACGTGCCGGG,0.42
16,TTTTACACGTGGTGCA,0.03
17,AAGTGCACGTGCAGTG,0.04
18,CGGTGCACGTGAGGAA,0.31
19,ATATGCACGTGTTACT,-0.07
20,TGGTACACGTGGAGGT,0.07
21,TAGTGCACGTGAGGGA,0.13
22,TGTACCACGTGAGGTT,0.19
23,TGTTACACGTGTAAGG,0.14

row,Sequence,relative binding free energy [kcal/mol]
1,TTTGACACGTGACTTA,0.15
2,GGGTACACGTGTGGTC,0.14
3,TTCGCCACGTGTTATG,0.07
4,TATAACACGTGTGGGA,0.01
5,TTTTACACGTGGAGTT,0.21
6,TGTCGCACGTGTGGTT,0.07
7,GGATACACGTGAGGTG,0.32
8,GGCTTCACGTGGGGAA,0.26
9,CTCGGCACGTGTCTGG,0
10,GGGCACACGTGTGGGA,0
11,CATGACACGTGTTTTT,0.11
12,CATTACACGTGTTTTT,0.05
13,GTTCACACGTGCAGGG,0.13
14,AGCGTCACGTGGGTGT,-0.06
15,CTAGGCACGTGGTTGC,-0.17
16,ATAGGCACGTGAATTG,0.17
17,TCAATCACGTGGTGGT,0.18
18,CGGTGCACGTGCGTGG,-0.14
19,TTTTTCACGTGCTTGA,0.28
20,AAAGTCACGTGTGGGC,0.12
21,TGGTTCACGTGATAGG,0.37
22,TTTGTCACGTGTGGTT,0.22
23,TATTGCACGTGTGGTG,0.05
